{"source": "the supplement of paper PMC8728848", "test_in_all_cases": "glycan array binding signal (z-score within array); higher = stronger binding", "settings_in_all_cases": "glycan notation: IUPAC condensed, linker removed", "key": {"[1]": {"target": "GalNAc(a1-3)GalNAc(b1-3)Gal(a1-4)Gal(b1-4)GlcNAc", "outline": "(§1)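 Columns mapping to the same glycan were averaged after glycan names were converted to IUPAC-condensed notation. The data come from 3228 arrays in the Consortium for Functional Glycomics database, limited to those with an available protein sequence. Binding is reported as a within-array Z-score averaged across arrays of one protein sequence and across linkers.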"}, "GalNAc(b1-3)Gal": {"target": "GalNAc(b1-3)Gal", "outline": "as §1"}, "[2]": {"target": "GalNAc(b1-3)Gal(a1-4)Gal(b1-4)GlcNAc", "outline": "as §1"}, "[3]": {"target": "GalNAc(b1-3)Gal(a1-4)Gal(b1-4)GlcNAc(b1-3)Gal(b1-4)Glc", "outline": "as §1"}, "[4]": {"target": "GalNAc(b1-3)Gal(a1-6)Gal(b1-4)Glc", "outline": "as §1"}, "GalNAc(b1-3)GalNAc": {"target": "GalNAc(b1-3)GalNAc", "outline": "as §1"}, "GalNAc(b1-3)GlcNAc": {"target": "GalNAc(b1-3)GlcNAc", "outline": "as §1"}, "GalNAc(b1-4)Gal(b1-4)Glc": {"target": "GalNAc(b1-4)Gal(b1-4)Glc", "outline": "as §1"}, "GalNAc(b1-4)GlcNAc": {"target": "GalNAc(b1-4)GlcNAc", "outline": "as §1"}, "[5]": {"target": "GalNAc(b1-4)GlcNAc(b1-2)Man", "outline": "as §1"}, "[6]": {"target": "GalNAc(b1-4)GlcNAc(b1-2)Man(a1-3)[GalNAc(b1-4)GlcNAc(b1-2)Man(a1-6)]Man(b1-4)GlcNAc(b1-4)GlcNAc", "outline": "as §1"}, "[7]": {"target": "GalNAc(b1-4)GlcNAc(b1-3)GalNAc(b1-4)GlcNAc", "outline": "as §1"}, "GalNAc(b1-4)GlcNAc6S": {"target": "GalNAc(b1-4)GlcNAc6S", "outline": "as §1"}, "GalNAc(b1-6)GalNAc": {"target": "GalNAc(b1-6)GalNAc", "outline": "as §1"}, "GalNAc3S(b1-4)GlcNAc": {"target": "GalNAc3S(b1-4)GlcNAc", "outline": "as §1"}, "GalNAc3S(b1-4)GlcNAc3S": {"target": "GalNAc3S(b1-4)GlcNAc3S", "outline": "as §1"}, "[8]": {"target": "GalNAc3S(b1-4)[Fuc(a1-3)]GlcNAc", "outline": "as §1"}, "GalNAc4S6S(b1-4)GlcNAc": {"target": "GalNAc4S6S(b1-4)GlcNAc", "outline": "as §1"}, "GalNAc6S(b1-4)GlcNAc": {"target": "GalNAc6S(b1-4)GlcNAc", "outline": "as §1"}, "Glc(a1-4)Glc": {"target": "Glc(a1-4)Glc", "outline": "as §1"}, "[9]": {"target": "Glc(a1-4)Glc(a1-4)Glc(a1-4)Glc", "outline": "as §1"}, "Glc(a1-6)Glc(a1-6)Glc": {"target": "Glc(a1-6)Glc(a1-6)Glc", "outline": "as §1"}, "[10]": {"target": "Glc(a1-6)Glc(a1-6)Glc(a1-6)Glc", "outline": "as §1"}, "Glc(b1-4)Glc": {"target": "Glc(b1-4)Glc", "outline": "as §1"}, "Glc(b1-6)Glc": {"target": "Glc(b1-6)Glc", "outline": "as §1"}, "GlcA(b1-3)Gal": {"target": "GlcA(b1-3)Gal", "outline": "as §1"}, "GlcA(b1-3)GlcNAc": {"target": "GlcA(b1-3)GlcNAc", "outline": "as §1"}, "GlcA(b1-6)Gal": {"target": "GlcA(b1-6)Gal", "outline": "as §1"}, "[11]": {"target": "GlcA3S(b1-3)Gal(b1-4)GlcNAc(b1-2)Man", "outline": "as §1"}, "[12]": {"target": "GlcA3S(b1-3)Gal(b1-4)GlcNAc(b1-3)Gal(b1-4)Glc", "outline": "as §1"}, "[13]": {"target": "GlcNAc(a1-3)Gal(b1-4)GlcNAc", "outline": "as §1"}, "[14]": {"target": "GlcNAc(a1-4)Gal(b1-3)GlcNAc", "outline": "as §1"}, "[15]": {"target": "GlcNAc(a1-4)Gal(b1-4)GalNAc", "outline": "as §1"}, "[16]": {"target": "GlcNAc(a1-4)Gal(b1-4)GlcNAc", "outline": "as §1"}, "[17]": {"target": "GlcNAc(a1-4)Gal(b1-4)GlcNAc(b1-3)Gal(b1-4)Glc", "outline": "as §1"}, "[18]": {"target": "GlcNAc(a1-4)Gal(b1-4)GlcNAc(b1-3)Gal(b1-4)GlcNAc", "outline": "as §1"}, "[19]": {"target": "GlcNAc(a1-4)Gal(b1-4)GlcNAc(b1-3)Gal(b1-4)GlcNAc(b1-3)Gal(b1-4)GlcNAc", "outline": "as §1"}, "[20]": {"target": "GlcNAc(a1-4)Gal(b1-4)GlcNAc(b1-3)Gal(b1-4)[Fuc(a1-3)]GlcNAc(b1-3)Gal(b1-4)[Fuc(a1-3)]GlcNAc", "outline": "as §1"}}, "note": "This is one part of the list."}
{"binder": "MGL (Homo sapiens), Q8IUN9 (protein) MTRTYENFQYLENKVKVQGFKNGPLPLQSLLQRLCSGPCHLLLSLGLGLLLLVIICVVGFQNSKFQRDLVTLRTDFSNFTSNTVAEIQALTSQGSSLEETIASLKAEVEGFKQERQAGVSELQEHTTQKAHLGHCPHCPSVCVPVHSEMLLRVQQLVQDLKKLTCQVATLNNNASTEGTCCPVNWVEHQDSCYWFSHSGMSWAEAEKYCQLKNAHLVVINSREEQNFVQKYLGSAYTWMGLSDPEGAWKWVDGTDYATGFQNWKPGQPDDWQGHGLGGGEDCAHFHPDGRWNDDVCQRPYHWVCEAGLGQTSQESH", "values": [{"measurement": "glycan array binding signal (z-score)", "setting": "[1]", "result": 0.634}, {"measurement": "glycan array binding signal (z-score)", "setting": "GalNAc(b1-3)Gal", "result": 3.3}, {"measurement": "glycan array binding signal (z-score)", "setting": "[2]", "result": 0.936}, {"measurement": "glycan array binding signal (z-score)", "setting": "[3]", "result": 1.95}, {"measurement": "glycan array binding signal (z-score)", "setting": "[4]", "result": 3.77}, {"measurement": "glycan array binding signal (z-score)", "setting": "GalNAc(b1-3)GalNAc", "result": 1.38}, {"measurement": "glycan array binding signal (z-score)", "setting": "GalNAc(b1-3)GlcNAc", "result": 3.28}, {"measurement": "glycan array binding signal (z-score)", "setting": "GalNAc(b1-4)Gal(b1-4)Glc", "result": -0.229}, {"measurement": "glycan array binding signal (z-score)", "setting": "GalNAc(b1-4)GlcNAc", "result": 1.7}, {"measurement": "glycan array binding signal (z-score)", "setting": "[5]", "result": 3.9}, {"measurement": "glycan array binding signal (z-score)", "setting": "[6]", "result": 2.3}, {"measurement": "glycan array binding signal (z-score)", "setting": "[7]", "result": 3.14}, {"measurement": "glycan array binding signal (z-score)", "setting": "GalNAc(b1-4)GlcNAc6S", "result": 4.05}, {"measurement": "glycan array binding signal (z-score)", "setting": "GalNAc(b1-6)GalNAc", "result": -0.251}, {"measurement": "glycan array binding signal (z-score)", "setting": "GalNAc3S(b1-4)GlcNAc", "result": -0.238}, {"measurement": "glycan array binding signal (z-score)", "setting": "GalNAc3S(b1-4)GlcNAc3S", "result": -0.243}, {"measurement": "glycan array binding signal (z-score)", "setting": "[8]", "result": -0.24}, {"measurement": "glycan array binding signal (z-score)", "setting": "GalNAc4S6S(b1-4)GlcNAc", "result": -0.236}, {"measurement": "glycan array binding signal (z-score)", "setting": "GalNAc6S(b1-4)GlcNAc", "result": 2.56}, {"measurement": "glycan array binding signal (z-score)", "setting": "Glc(a1-4)Glc", "result": -0.247}, {"measurement": "glycan array binding signal (z-score)", "setting": "[9]", "result": -0.242}, {"measurement": "glycan array binding signal (z-score)", "setting": "Glc(a1-6)Glc(a1-6)Glc", "result": -0.251}, {"measurement": "glycan array binding signal (z-score)", "setting": "[10]", "result": -0.246}, {"measurement": "glycan array binding signal (z-score)", "setting": "Glc(b1-4)Glc", "result": -0.259}, {"measurement": "glycan array binding signal (z-score)", "setting": "Glc(b1-6)Glc", "result": -0.245}, {"measurement": "glycan array binding signal (z-score)", "setting": "GlcA(b1-3)Gal", "result": -0.247}, {"measurement": "glycan array binding signal (z-score)", "setting": "GlcA(b1-3)GlcNAc", "result": -0.248}, {"measurement": "glycan array binding signal (z-score)", "setting": "GlcA(b1-6)Gal", "result": -0.257}, {"measurement": "glycan array binding signal (z-score)", "setting": "[11]", "result": -0.245}, {"measurement": "glycan array binding signal (z-score)", "setting": "[12]", "result": -0.247}, {"measurement": "glycan array binding signal (z-score)", "setting": "[13]", "result": -0.228}, {"measurement": "glycan array binding signal (z-score)", "setting": "[14]", "result": -0.252}, {"measurement": "glycan array binding signal (z-score)", "setting": "[15]", "result": -0.244}, {"measurement": "glycan array binding signal (z-score)", "setting": "[16]", "result": -0.248}, {"measurement": "glycan array binding signal (z-score)", "setting": "[17]", "result": -0.247}, {"measurement": "glycan array binding signal (z-score)", "setting": "[18]", "result": -0.237}, {"measurement": "glycan array binding signal (z-score)", "setting": "[19]", "result": -0.242}, {"measurement": "glycan array binding signal (z-score)", "setting": "[20]", "result": -0.23}]}
